IC50 is the fitted dose that halves viability relative to control wells, and lower means more sensitive; where the fit passes the top or lowest dose, that dose stands as a limit. AUC sums up the same curve from the lowest dose to the 256-fold higher top dose: 1 means no effect, lower means more sensitive. For part of these data: Any top dose called inferred was calculated from the reported fits. For part of these data: Drugs with an entry number were screened twice under separate entries, and the two screens often disagree.
Experiments:
Assay in all cases: Viability of human cancer cell lines after 72 h of drug (GDSC screen)
[1] = compound: Cc1cn(-c2cc(NC(=O)c3ccc(C)c(Nc4nccc(-c5cccnc5)n4)c3)cc(C(F)(F)F)c2)cn1 [Nilotinib]; conditions: top dose 2 µM
Procedure: (§1)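 Human cancer cell lines in 384-well plates, medium with 10% serum, drug for 72 h over a 256-fold dose range (nine 2-fold or five 4-fold steps up to the top dose). Adherent lines were fixed and stained with the nucleic acid dye Syto60, suspension lines read with resazurin; signal relative to control wells, capped at 0 and 100%. One two-parameter sigmoid per drug and line, fitted in a mixed model over all curves with the slope shared within a line.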

[2] = compound: CC(O)(CS(=O)(=O)c1ccc(F)cc1)C(=O)Nc1ccc(C#N)c(C(F)(F)F)c1 [Bicalutamide]; conditions: top dose inferred
Procedure: as §1

[3] = compound: Nc1ccn([C@@H]2O[C@H](CO)[C@@H](O)C2(F)F)c(=O)n1 [Gemcitabine]; conditions: top dose 1.024 µM
Procedure: as §1

[4] = compound: C/C(O)=C(\C#N)C(=O)Nc1cc(Br)ccc1Br [LFM-A13]; conditions: top dose 16 µM; top dose inferred
Procedure: as §1

[5] = compound: CC(C)c1ccccc1Cc1cc(C(=O)Nc2ccc(S(=O)(=O)c3ccccc3C(C)(C)C)cc2)c(O)c(O)c1O [TW-37]; conditions: top dose 5 µM
Procedure: as §1

[6] = compound: O=S(=O)(c1ccccc1)N(CC(F)(F)F)c1ccc(C(O)(C(F)(F)F)C(F)(F)F)cc1 [T0901317]; conditions: top dose 10.24 µM; top dose inferred
Procedure: as §1

[7] = compound: S=C(NCc1ccc2c(c1)OCO2)N1CCN(c2ncnc3c2oc2ccccc23)CC1 [MP470]; conditions: top dose 20 µM; top dose inferred
Procedure: as §1

[8] = compound: Cc1ccc(Nc2cc(-c3cccc(N4C(=O)c5ccccc5C4=O)c3)ncn2)cc1NS(C)(=O)=O [KIN001-270]; conditions: top dose 20 µM; top dose inferred
Procedure: as §1

[9] = compound: NC(=O)c1cccc(-c2cc(Nc3ccc(OC(F)(F)F)cc3)ncn2)c1 [GNF-2]; conditions: top dose 1.28 µM; top dose inferred
Procedure: as §1

[10] = compound: CCNC(=O)c1noc(-c2cc(C(C)C)c(O)cc2O)c1-c1ccc(CN2CCOCC2)cc1 [AUY922]; conditions: top dose 0.256 µM; top dose inferred
Procedure: as §1

[11] = top dose 1.024 µM, screen: GDSC drug entry 150
[12] = top dose 10 µM, screen: GDSC drug entry 1502

Cell Line	AUC [1]	IC50 [1] [nM]	AUC [2, 11]	IC50 [2, 11] [nM]	AUC [3]	IC50 [3] [nM]	AUC [4]	IC50 [4] [nM]	AUC [5]	IC50 [5] [nM]	AUC [6]	IC50 [6] [nM]	AUC [7]	IC50 [7] [nM]	AUC [8]	IC50 [8] [nM]	AUC [9]	IC50 [9] [nM]	AUC [10]	IC50 [10] [nM]	AUC [2, 12]	IC50 [2, 12] [nM]
NB6 (neuroblastoma, adherent)	0.977	> 2000	0.96	> 1020	0.813	721	0.846	15900	0.77	2340	0.98	> 10200	0.911	> 20000	0.933	> 20000	0.975	> 1280	0.869	> 256	–	–
SK-UT-1 (soft tissue, adherent)	0.974	> 2000	0.989	> 1020	0.028	< 4	0.983	> 16000	0.276	77.4	0.976	> 10200	0.987	> 20000	0.985	> 20000	0.969	> 1280	0.558	22.7	0.985	> 10000
EW-24 (Ewing sarcoma, semi-adherent)	0.991	> 2000	0.991	> 1020	0.964	> 1020	0.992	> 16000	0.896	4840	0.981	> 10200	0.846	12000	0.992	> 20000	0.993	> 1280	0.843	150	0.99	> 10000
EJM (lymphoid neoplasm, semi-adherent)	0.988	> 2000	0.992	> 1020	0.724	244	0.99	> 16000	0.606	580	0.987	> 10200	0.806	8290	0.95	> 20000	0.992	> 1280	0.728	62.5	0.99	> 10000
ONS-76 (medulloblastoma, adherent)	0.965	> 2000	0.985	> 1020	0.328	20.3	0.976	> 16000	0.497	306	0.984	> 10200	0.967	> 20000	0.948	> 20000	0.985	> 1280	0.594	–	0.974	> 10000
HAL-01 (lymphoblastic leukaemia, suspension)	0.913	> 2000	0.989	> 1020	0.125	5.08	0.983	> 16000	0.372	145	0.949	> 10200	0.806	8750	0.974	> 20000	0.989	> 1280	0.622	33.2	0.975	> 10000
NMC-G1 (glioma, adherent)	0.972	> 2000	0.982	> 1020	0.255	10.6	0.94	> 16000	0.576	529	0.98	> 10200	0.925	> 20000	0.961	> 20000	0.978	> 1280	0.527	19.3	0.972	> 10000
ROS-50 (B-cell leukaemia, suspension)	0.982	> 2000	0.983	> 1020	0.894	> 1020	0.968	> 16000	0.766	2340	0.964	> 10200	0.944	> 20000	0.977	> 20000	0.985	> 1280	0.902	> 256	0.979	> 10000
IMR-5 (neuroblastoma, adherent)	0.991	> 2000	0.988	> 1020	0.357	27.7	0.98	> 16000	0.61	596	0.989	> 10200	0.963	> 20000	0.974	> 20000	0.988	> 1280	0.706	54.6	0.971	> 10000
NCI-H716 (large intestine, suspension)	0.745	769	0.982	> 1020	0.978	> 1020	0.979	> 16000	0.624	750	0.976	> 10200	0.98	> 20000	0.972	> 20000	0.981	> 1280	0.858	> 256	0.959	> 10000
SU-DHL-16 (B-cell lymphoma, suspension)	0.996	> 2000	0.996	> 1020	0.212	12.6	0.993	> 16000	0.452	239	0.899	6680	0.186	211	0.848	9160	0.996	> 1280	0.549	21	0.995	> 10000
LAN-6 (neuroblastoma, adherent)	0.984	> 2000	0.984	> 1020	0.926	> 1020	0.974	> 16000	0.423	184	0.978	> 10200	0.902	> 20000	0.976	> 20000	0.985	> 1280	0.792	141	0.972	> 10000

— the supplement of paper PMC4967469
